Several values for one entry are separate records, joined by “and”; a condition that tells them apart may be missing. Identical values can stand only once. Among all 110,000 compounds or so, about 230 (0.21%) showed an effect of 50% or more. Some of the results follow.
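Further: 30 min substrate incubation versus DMSO and 10 µM JCP410 controls.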

The experiment deals with DPAP1 (Plasmodium falciparum, UniProt Q8IIJ9). Kind of experiment: primary screen, percent inhibition; read by cleavage of a fluorogenic dipeptide substrate; higher = more effect of the substance. Set-up: species or system P. falciparum D10 trophozoite lysates; single well.
Chain of DPAP1 (Q8IIJ9 whole entry, looked up): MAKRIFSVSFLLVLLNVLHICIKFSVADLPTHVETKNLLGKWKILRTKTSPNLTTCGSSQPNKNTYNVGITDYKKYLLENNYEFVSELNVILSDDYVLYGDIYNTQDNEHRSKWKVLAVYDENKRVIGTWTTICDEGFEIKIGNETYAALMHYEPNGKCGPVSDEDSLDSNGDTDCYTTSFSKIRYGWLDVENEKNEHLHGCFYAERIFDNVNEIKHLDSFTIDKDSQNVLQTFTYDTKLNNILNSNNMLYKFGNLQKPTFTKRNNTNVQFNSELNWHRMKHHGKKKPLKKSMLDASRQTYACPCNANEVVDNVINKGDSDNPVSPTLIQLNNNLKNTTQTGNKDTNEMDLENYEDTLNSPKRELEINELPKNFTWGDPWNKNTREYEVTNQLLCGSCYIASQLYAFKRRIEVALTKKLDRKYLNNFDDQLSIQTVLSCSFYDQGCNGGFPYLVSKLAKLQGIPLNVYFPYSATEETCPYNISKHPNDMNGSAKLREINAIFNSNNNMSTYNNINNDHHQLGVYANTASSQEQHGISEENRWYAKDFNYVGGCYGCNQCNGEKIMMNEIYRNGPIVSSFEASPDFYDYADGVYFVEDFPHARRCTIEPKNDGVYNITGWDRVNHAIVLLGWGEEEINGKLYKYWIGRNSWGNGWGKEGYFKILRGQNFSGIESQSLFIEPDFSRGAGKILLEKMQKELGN
Consider `CCOC(=O)c1c(NC(=O)c2cc3c(C)nn(-c4ccccc4)c3s2)sc2c1CCCC2`, for which the “% Inhibition @ 10 uM” value is -6.7%. `CC(C)(C)NC(=O)CCC(=O)c1ccccc1`: the “% Inhibition @ 10 uM” value is 1.81%.

With `Nc1cc(OCc2ccccc2)ccc1F`, the “% Inhibition @ 10 uM” value is recorded as -3.19%. `Cc1cc(C(=O)N[C@@H](CC(C)C)C(=O)NCC#N)ccc1-c1ccccc1`: the “% Inhibition @ 10 uM” value is on record as 3.19%. With `COc1cc(C(=O)NCc2nnc(SCC(=O)c3ccccc3)o2)cc(OC)c1OC`, the “% Inhibition @ 10 uM” value was found to be 1.85%. Turning to `CC(CCN1CCCC(CO)C1)c1ccccc1` (stereo not drawn), the “% Inhibition @ 10 uM” value is on record as -4.14%.

For the compound `CN(CC1CC=CCC1)CC(O)c1ccccc1` (stereo not drawn), the “% Inhibition @ 10 uM” value was -3.15%.

As for `Cc1ccc(NC(=O)c2cccnc2Cl)cc1C`, the “% Inhibition @ 10 uM” value is reported as -0.0619%. The same measure for `CC(=O)N1CCC2(CC1)CC(=O)c1cc(OCC(=O)NCCc3ccc(Cl)cc3)ccc1O2`: -4.07%. With `Fc1ccc(-c2noc3ncnc(NCc4ccc(CN5CCCCCC5)o4)c23)cc1`, the “% Inhibition @ 10 uM” value worked out at 1.23%. As for `Cc1ccc2oc(=O)c3cc(C(=O)N(C)Cc4ccco4)sc3c2c1`, the “% Inhibition @ 10 uM” value is listed as -3.68%.

With `Cc1nc2cc(-c3ccccc3)nn2c(C)c1CC(=O)NCCc1ccc(Cl)cc1`, the “% Inhibition @ 10 uM” value is listed as 0.953%. `Cc1c(C(=O)NCCc2ccccc2)oc2ccc(S(=O)(=O)N3CCCCCC3)cc12`: the “% Inhibition @ 10 uM” value is listed as -2.95%. In the case of `Cc1ccc(C(=O)NC2(C(F)(F)F)N=C(c3ccccc3F)NC2=O)cc1` (stereo not drawn), the “% Inhibition @ 10 uM” value is on record as -5.04%. With `CCCc1cc2c(=O)c(-c3nc4ccccc4s3)c(C(F)(F)F)oc2cc1O`, the “% Inhibition @ 10 uM” value amounted to 4.9%. As for `CC(=O)N/C(=C/c1ccccc1Br)C(=O)NC(C)(C)C`, the “% Inhibition @ 10 uM” value is -3.78%. The same measure for `CCCS(=O)(=O)c1nc(S(=O)(=O)c2ccc(C)cc2)c(N2CCN(CC)CC2)s1`: 2.76%; for `CCCn1c(SCc2nc(-c3ccc(C)cc3)no2)nnc1-c1ccncc1`: 1.25%. For the compound `N#CC1=C(N)N(c2cc(C(F)(F)F)ccc2Cl)C2=C(C(=O)CCC2)C1c1cccnc1` (stereo not drawn), the “% Inhibition @ 10 uM” value is listed as -6.62%. For `CC[C@H](NC(=O)[C@H](CS(=O)(=O)Cc1ccccn1)NC1=NS(=O)(=O)c2ccccc21)C(=O)c1nc(-c2ccccc2)no1` the value was -6.56%; for `Cc1cccc(N2CCN(C(=O)C3C4C=CC(C4)C3C(=O)O)CC2)c1C` (stereo not drawn), 3.67%; for `CC1=C(C(=O)OCC(C)C)C(c2ccc(Cl)c(Cl)c2)NC(=O)N1` (stereo not drawn), 0.736%. In the case of `CN(C1CCCC1)C1CCN(C(=O)CNC(=O)/C=C/c2cccc(C(F)(F)F)c2)CC1`, the “% Inhibition @ 10 uM” value is listed as 0.689%.

As to `C#CCOc1cc(Br)c(/C=C2\NC(=O)NC2=O)cc1OC`, the “% Inhibition @ 10 uM” value is on record as -5.48%.

Turning to `Cn1nccc1C#CCN1CCOCC1`, the “% Inhibition @ 10 uM” value is reported as 0.937%. For `Cc1cccnc1NC(=O)c1noc2c1COc1ccccc1-2`, the “% Inhibition @ 10 uM” value was -3.51%.

Consider `Oc1nnc2n1CCCCC2`, for which the “% Inhibition @ 10 uM” value turned out to be 1.91%.

Consider `CC(C)C[C@H](NC(=O)c1cccc2ccccc12)C(=O)NCC#N`, for which the “% Inhibition @ 10 uM” value was -1.41%. Turning to `CC(=O)OC1C2CCC1C(N1CCCCC1)CC2` (stereo not drawn), the “% Inhibition @ 10 uM” value is -3.62% and -1.66%. As for `COc1cc(C(=O)O)ccc1OCc1ccc(Cl)cc1`, the “% Inhibition @ 10 uM” value is -0.511%.

Regarding `O=C(NCCc1ccc(Cl)cc1)c1csc2c1CCCC2`, the “% Inhibition @ 10 uM” value is recorded as -3.21%. Regarding `Cc1nnc(SCCc2ccccc2)nc1O`, the “% Inhibition @ 10 uM” value is -1.1%.

Turning to `O=C(NCC(F)(F)C(F)F)c1cccnc1`, the “% Inhibition @ 10 uM” value is 1.04%. As for `O=C(NCCO)C12CC3CCC(CC(C3)C1)C2`, the “% Inhibition @ 10 uM” value stood at 2.58%. In the case of `CCc1nnc(NC(=O)CSc2nc[nH]n2)s1`, the “% Inhibition @ 10 uM” value worked out at 8.01%. For `COC(=O)c1c(C)nn2c3ccccc3n(C)c12` the value was -7.19%. The same measure for `Clc1ccc2c(c1)C=C(N1CCNCC1)c1ccccc1S2`: 2.64%; for `O=c1c2ccccc2nc(-c2ccccc2F)n1-c1ccccc1`: 2.09%; for `COc1ccc(C(=O)Nc2ccc(N(C)C)cc2)cc1OC`: -2.18%.

In the case of `Cc1csc2nc(CNC(=O)CCC(=O)O)cn12`, the “% Inhibition @ 10 uM” value was -4.24%.

Regarding `COc1cc(SC)ccc1C(=O)Nc1cccc(CCc2ccccn2)c1`, the “% Inhibition @ 10 uM” value was 2.76%. For `COc1ccc(OC)c(COC(=O)N[C@@H](CC(C)C)C(=O)NCC#N)c1`, the “% Inhibition @ 10 uM” value is reported as -4.72%.

Consider `COc1ccc(N(CC(=O)N2CCOCC2)S(C)(=O)=O)c(OC)c1`, for which the “% Inhibition @ 10 uM” value was -4.72%.

Turning to `COc1ccc(-n2ncc(C(=O)NCCCN3CCN(C)CC3)c2C2CCNCC2)cc1`, the “% Inhibition @ 10 uM” value was -7.13%. For `COc1cc2c(cc1OC)C1=C(C#N)CN(CCc3ccccc3)CN1CC2`, the “% Inhibition @ 10 uM” value was 5.83%.

Consider `CCOC(=O)C1=C(C)OC(N)=C(C#N)C1c1ccccc1` (stereo not drawn), for which the “% Inhibition @ 10 uM” value is -1.77%. As for `Nc1cc(C(=O)O)c(Cl)cc1C(=O)O`, the “% Inhibition @ 10 uM” value amounted to 1.64%. For the compound `CSc1nc(N)nc(SCc2c(F)cccc2Cl)c1C#N`, the “% Inhibition @ 10 uM” value came out at 1.76%.

As for `Cc1ccc(S(=O)(=O)N(CC(=O)NC(C)C)c2ccc(Br)cc2)cc1`, the “% Inhibition @ 10 uM” value was -2.92%. For `CC(C)(C(=O)O)N1C(=O)c2ccccc2C1=O` the value was 1.27%; for `N#CCn1nc2ccccc2n1`, -2.17%.

`CC1=C(C(=O)OC2CCCCC2)C(c2cccc(O)c2)C2=C(O)CC(C)(C)CC2=N1` (stereo not drawn): the “% Inhibition @ 10 uM” value was -2.18%. Take `COc1ccccc1/C=C1\C(=O)NC(=S)N(c2ccc(C)cc2)C1=O`: the “% Inhibition @ 10 uM” value is -2.5%. For `Cc1ccc(C2C(C(=O)c3ccc4c(c3)OCCO4)=C(O)C(=O)N2CCCN(C)C)o1` (stereo not drawn), the “% Inhibition @ 10 uM” value was 1.64%. For `CC(C)=CC/C=C1\CCC(C(=O)O)C(C(=O)O)C1` (stereo not drawn) the value was 2%.

In the case of `CCOc1ccccc1CNCc1cccn1-c1nnc(N2CCN(C3CCCCC3)CC2)s1`, the “% Inhibition @ 10 uM” value came to 1.41%.

For the compound `NC(=S)Cc1nc(-c2cc3ccccc3oc2=O)cs1`, the “% Inhibition @ 10 uM” value stood at 23.7%.

`Cc1ccc(Cn2nnc3c(=O)n(CC(=O)NC4CCCC4)cnc32)cc1`: the “% Inhibition @ 10 uM” value is listed as -0.431%. For `Cn1c2c(c(=O)n(C)c1=O)CN(CCc1ccc(Cl)cc1)CN2` the value was -6.67%; for `CCN1CCn2c3c(c4cc(Cl)ccc42)CCCC31` (stereo not drawn), 3.15%; for `O=c1c2ccccc2nc(Cc2ccccc2)n1-c1ccc(O)cc1`, 1.15%.

Take `CNC(=O)c1c(O)nc2ccccc2c1O`: the “% Inhibition @ 10 uM” value is recorded as -3.55%. For `CC(C)(C)C(=O)NCCCc1nc2ccccc2n1CCOc1ccccc1` the value was -2.28%; for `COc1ccc(Cc2nc(S(=O)(=O)c3ccc(C)cc3)c(N3CCOCC3)o2)cc1`, -1.72%.

With `Cc1nc2c(O)nc3ccccc3c2o1`, the “% Inhibition @ 10 uM” value is reported as -1.59%.

With `COc1ccc2c(c1)CCC1C2=NN(C(C)=O)C1c1ccc(C)cc1` (stereo not drawn), the “% Inhibition @ 10 uM” value is given as 0.315%.

Source of the values: article PMC6919601, “Identification of Plasmodium dipeptidyl aminopeptidase allosteric inhibitors by high throughput screening” (PLoS ONE, 2019).
